Here are results for 167 variants from the RNAGym collection of RNA variant scans (doi:10.7554/elife.90254).

The labels stand for the following.
B1: OR4K15 (parent)
chain: GUUAACGGUCAUAGGCCAUGGAAACUAGGAGCACCAUUUCGCUGCCAGUGAAGAAAUGAACAAAGAAAAUCUGGGCCAGGCAGGCAUCAAAAGAAAUAGUCUUGCGCUCAACCAGAAAGUCUGUAAUCAUUUUAAGGGUA

Read counts are not given, so values of variants with three or more changes are uncertain.

Variants of B1 are the subject of this data set. The data set is described as follows: self-cleavage, relative activity (ratio to wild type); higher = more cleavage; in vitro, sequencing; the parent is a self-cleaving ribozyme.
Turning to U26C A67G A78G A96G, the self-cleavage amounted to 0.32.
Take U26A A33U A64G A66G A67G: the self-cleavage worked out at 0.37.
For A24U A59G U72A U139C, the self-cleavage was determined as 0.15.
As to A24U A55U A89U U131C, the self-cleavage turned out to be 1.29.
In the case of U26C A30G A98G, the self-cleavage was 0.72.
With U26C C77U A89U A96G, the self-cleavage is 1.93.
Then U26C U49A A78U A135U, with 0.15.
Take A24U U39C U72A U132A: the self-cleavage was 0.21.
With A27G A33U U37C A62G A69G U87C A117U A135G the figure was 0.91; with U26C U49G G119A U127C, 2.47.
Regarding A27G A33G U43C U49A A51G A55G, the self-cleavage was found to be 0.15.
With U26C A33U U57A A89G the figure was 1.36.
Then A24U A56G A62U A98U U131C, with 2.34.
Consider A27G A51C A64U U108A, for which the self-cleavage came to 0.03.
Take C25U C46U A63U: the self-cleavage came to 1.1.
Then A27G A52U A78U, with 0.55; and A27G A52G U100C, with 1.9.
With U26C A54G A110G the figure was 0.09; with U26C U70C A89C A92G, 0.25; with U26A A62G A68G U72C U108C, 0.
As to U26A U57C A69G U72A A78G, the self-cleavage amounted to 0.24.
Then U26C A47C G74A A114G U120C G137A, with 0.03; and U26C A36U U37C, with 0.75.
With A24U A52G A118G, the self-cleavage came out at 0.84.
Then C25U U49C U57C U108C A129C, with 0; and A27C U87C A90G, with 0.4; and A24G U132C A134G, with 1.51.
With U26C U38C U49A A96G the figure was 1.28; with U26A U43A A51U A82G, 0.52; with A27G A30G C45G A125G U132C, 0.64.
Regarding U26C A55G A90G A135G, the self-cleavage came out at 0.6.
With C25A A56G A86G A92G A129G the figure was 0.75.
With A24U U49A A52U C61A U70A A95G, the self-cleavage worked out at 1.34.
With U26G A51U A59G the figure was 0.34; with A24U U43G A59G G73A G74A, 0.46; with A27G A60G C61G U108C A111G, 0.
With U26A A62G A64G the figure was 1.62; with A27G A36G U70C A111G, 0.06.
Then C25U A117G A126G, with 1.49; and C25U U38C A52U A117G, with 1.83; and A24U A78U U103C A110G A134G, with 0.01.
Consider U26G U70C A111G, for which the self-cleavage was 0.05.
With U26C U39A U49C U108C, the self-cleavage worked out at 0.01.
With A24U A33G U70C U132A the figure was 1.22; with A24U G53A A110G, 0.21.
Then U26A C40U A86U A135G, with 1.55; and U26C A59G U87C, with 0.62; and C25U U87A A94G, with 1.44.
Then U26C A69U A78G C88U, with 0.18; and A24U A52G A92G A94U, with 1.41.
For A27G A56C U87C, the self-cleavage was 0.82.
With A24U C45A A62C, the self-cleavage is 1.46.
With U26C A91G U102C the figure was 1.25.
With U26C A47G A126G U132C the figure was 0.77; with U26C C35U A67G, 1.
Take A27G A55G U122C A129G: the self-cleavage amounted to 0.32.
Turning to A24U A52G G74A U108C A110G, the self-cleavage was found to be 0.01.
With A27G A52G A69G A98G A110G the figure was 0.06; with U26C A33U A59G A64G A116G, 0.39; with U26C A68G A90U, 1.59.
Then C25U A86G U87C A129U, with 0.32; and U26C U43A A98G, with 0.85.
Then A27G A30U U43A A129G, with 1.32.
For U26C C35A A54G A98U U130C U139C, the self-cleavage worked out at 1.42.
Then U26C A36U A62U U108C, with 0.01.
Regarding U26C A68G U132A, the self-cleavage turned out to be 1.68.
With U26C G31A A56G G80U A86G the figure was 0.2; with A27G A30U U37C A89G U108C, 0.03.
Then U26C A92G A125C U127C, with 0.21.
Regarding U26C A52G A96U A117G A126G U130C, the self-cleavage amounted to 0.71.
Then U26C A114C U132C, with 0.02.
On to A27G A36G U57A, for which the self-cleavage is 1.02.
Then A27G A52G A55G A60G U127C A135G G138A, with 0.47; and U26C U37G A52G U127C, with 1.1; and A24U A54G A69G A94G, with 1.
Then U26C A52G U108A, with 0.02; and C25U A56G U72A U102C A118G, with 0.14.
Then U26C U37C A92G A116G, with 0.26; and A27G A60G A67G, with 1.29; and U26C A67G A69G A82G A129G, with 0.57.
As for A24U A92G A116G, the self-cleavage turned out to be 0.72.
Turning to C25A A54G A55G A111G, the self-cleavage is 0.
Then A24U U37C A62U G65U A91U, with 1.86; and U26A U70A U131C, with 1.15; and U26A C77U A116G, with 1.38.
Then U26C U57A A129G, with 1.1; and A27G A30G A67G A95G A125U, with 1.62.
Regarding A27G A56G A63G A82G, the self-cleavage was found to be 0.4.
U26C U43C A94U U132C: the self-cleavage turned out to be 2.07.
With U26C U43A A55G the figure was 2.28; with C25A A78G U139C, 0.17; with U26C A55G A78G A90G, 0.28.
Then U26A A55G A63G A67G U132C, with 1.24; and U26C A62G A68G A92G, with 0.59; and A24U U37C U38C A64G G80A, with 0.23.
With A24U A30U G50A U120C, the self-cleavage came to 0.82.
With U26C A30U A118G the figure was 0.64; with A24U A129G U130C, 1.49; with U26C A86G A90G A91G U100C, 1.69.
On to A27G A30G U43C A96G U97C, for which the self-cleavage stood at 0.
With U26A A78C C85U U108C A129G the figure was 0.01.
With A24G U108C A111G the figure was 0.02; with U26G A51G A82U C105U, 0.09.
Then A27G A56G A110U U127C A135G, with 0.78; and U26C A56G A82G U102C A125U, with 0.86.
On to A27G A54G A95G U122C, for which the self-cleavage was 1.17.
Then U26C U102C G136U, with 1.78; and U26C A51G A63U A117G, with 1.17.
On to U26C A27U U127C, for which the self-cleavage is 1.59.
For A27G A51G A78U, the self-cleavage is 0.53.
As to U26C A62G A67G A89G A111G, the self-cleavage turned out to be 0.02.
As to U26A A33G A90G C113U, the self-cleavage was 0.1.
In the case of U26C A47G A89G, the self-cleavage was 0.54.
In the case of A27G A51G A90G, the self-cleavage is 1.45.
For the variant U26G A30U A59U U103C, the self-cleavage came out at 0.54.
A27G A51U U102C: the self-cleavage came to 2.22.
Then U26C A54U U72A, with 0.29; and A27G A33U A117G, with 2.35; and A24U A54G A55G A78G U124C A125G, with 0.2.
Take A24U A54U A64G: the self-cleavage worked out at 1.5.
With A24G U122C U131C the figure was 1.2; with U26C A78G A91G A116G, 0.04; with U26A A47G A90G U108C A116G U133G A135G, 0.01.
On to U26C G80C U102C A114G, for which the self-cleavage turned out to be 0.14.
Then U26C U49C A111G A116G A126G, with 0; and U26C A56G G79U U97C, with 0.08; and U26C A47C C105U U108C A110G A118G, with 0.01.
U26A U49G U100C: the self-cleavage came out at 0.71.
With C25U A92G A110G the figure was 0.03; with U26C U57C A59G A96U A118G, 0.83.
With U26A A30U U38C A47G A64G A135G, the self-cleavage came to 1.53.
With A27G A52C A54U A59U U122C A126G U127C the figure was 0.18; with U26G A52G A94G U100C A118G, 1.2; with U26C A52U U108A A111G, 0.1.
For the variant A27G A51U A68G C81U U102C U130C U139C, the self-cleavage is 0.15.
Then U26C A51G U108C, with 0.05; and U26A U39C A82G A94U, with 0.39; and U26A A62G A67G, with 1.55.
Then U26C A66G C77U, with 1.98.
Then A24U U57C A92G, with 1.29; and U26C U70C A110G, with 0.11.
On to A27G A30G U37C A47U, for which the self-cleavage turned out to be 0.67.
With U26C A64G A68G A129G, the self-cleavage came out at 0.68.
Then U26G A30G U103C, with 0.46; and U26C A117G U131C, with 0.28.
For the variant U26A U37C A82G, the self-cleavage amounted to 0.56.
As to U26C A36C A67G A126G, the self-cleavage stood at 2.02.
For A27G A33C A114G A118G, the self-cleavage was found to be 0.67.
Consider C25U A51G G115A A118G, for which the self-cleavage amounted to 0.04.
Then U26C A95G A96G A117G, with 2.67; and U26C U37C U132C, with 2.07.
Turning to A24U A56G A78U U133C, the self-cleavage amounted to 0.55.
Then A27G A52G A67G A78G A82U A92G, with 0.32; and A27C A82G A114G, with 0.24.
Regarding U26C A30G A55G G74A A94G A96G U108A, the self-cleavage was 0.04.
On to U26C A56G A62G A111G A135G, for which the self-cleavage turned out to be 0.09.
With C25A A33G A60G the figure was 1.11; with U26C A62U U131C, 1.11.
As for U26C A62U U130C, the self-cleavage is 1.73.
Then A24U U39C A78U, with 0.78; and U26C A54G A117U, with 0.58; and U26C G74A U120C, with 0.05.
With U26A A30G A55G A116G U122C the figure was 0.09.
With A24U A36G U37C A51G A68G the figure was 0.82.
In the case of U26C A56G A68G A94G A117G, the self-cleavage worked out at 1.33.
Consider U26C U39C G99A A117G, for which the self-cleavage was determined as 0.3.
Then U26C A52G A68G U70C A116G, with 1.59.
